This is one part of the list.
Each sequence was assayed on PfAP2-HC AP2 domain (GST-tagged) (assay: gcPBM binding intensity (ln(normalized median fluorescence intensity)); higher = stronger DNA binding).
In short: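 In this array assay, P. falciparum DNA-binding domains with a GST tag, expressed in E. coli, were applied for 1 h to primer-extended double-stranded 36-bp intergenic genomic probes and negative controls on an Agilent 4 × 180k array. Bound protein was visualised with Alexa488 anti-GST antibody at 488 nm. Binding intensity is the highest Masliner-normalised natural-log median intensity across replicate spots of either probe orientation.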

| Sequence | gcPBM binding intensity (ln) |
| --- | --- |
| GCATTTTAATAATTATGTACATATATTATTCCTGGT [XGTACX_site3664] | 9.75 |
| TTCCATCAAAAAATGGGTACACATTATAGAAATATT [XGTACX_site8482] | 9.45 |
| TATACATATATATATACACACATATATATATATACA [CACACA_site402] | 9.8 |
| ACGCATGTAATTTATACACACATTCTTTTATATTTT [CACACA_site3708] | 9.87 |
| AAATTATTATCGTTAATATGTATATATGTGCCAAGT [TGCATGCA_negctrl_site557] | 9.7 |
| AAAACATACAGATATACACACATATATATATATATA [CACACA_site5091] | 10.1 |
| ATATTTAAACGATGGTGTACATATATTACAAGTTGT [XGTACX_site1743] | 9.72 |
| AATATACGAAATTGTGCACACATATATTTATGTATG [CACACA_site1510] | 10 |
| TAAAATGAAGGAATATGTACATAAATAAACATATAT [XGTACX_site6266] | 9.85 |
| CATATATGATATATTAGTACATATATATATATATAT [XGTACX_site1574] | 9.57 |
| CGATATAAAGATATTAGTACATATGCATGCTTGTCT [XGTACX_site8629] | 9.67 |
| AATCTAATGTAATGCATACACACAACTATCCATCAA [CACACA_site535] | 9.85 |
| AGGTATATATATTTATGTACTTAAAATGAGAAAATA [XGTACX_site8337] | 9.61 |
| CATATACGCAAACACACACACATATATATATATATA [CACACA_site501] | 11.6 |
| TATAATAATATTTATTGTACAATTAGGTTAATTCAT [XGTACX_site1986] | 9.52 |
| AAAAATAAAGTAAAAGCATGCTAGTATATGGAAAAT [TGCATGCA_site486] | 10.2 |
| TTGAAATTAAATGACATACACACTATATTATATATT [CACACA_site3135] | 9.75 |
| TATCGTTATATAATATGTACATATAAAATTTAAATT [XGTACX_site1887] | 9.57 |
| AAAATGTATATATAAACATGCACACGTGGTTGTATA [TGCATGCA_site847] | 9.89 |
| TCTTAAATTTCTTTATGTACATAATTAATATATTTA [XGTACX_site4456] | 9.73 |
| TATATATTATGACCACCACACACCTATACGCATAAC [CACACA_site2447] | 10.1 |
| ATATATATATATATATGTACATATCACTTTAAATAT [XGTACX_site3859] | 9.81 |

| Sequence | gcPBM binding intensity (ln) |
| --- | --- |
| TTTTCTTAAAAAATCAAACACACATATATATATACA [CACACA_site2297] | 9.64 |
| ATGATAGTATGTATGAGTACGAAAAAAAAAAATTAA [XGTACX_site32] | 9.67 |
| TGTGGGAATAACCACACACACACACCCATATATATA [CACACA_site5876] | 10.7 |
| AAATGCAAATGATGATGTACATACAAAAATTAAATT [XGTACX_site5323] | 9.86 |
| CTCAAACAATATTATATAATAAAGTACATATATATT [CACACA_negctrl_site446] | 9.57 |
| AAAAATAAATATACATGTACTTAAAATAATCGAATA [XGTACX_site8432] | 9.73 |
| TATATTTTTATATTTTGTACATATAGTAAATATAAA [XGTACX_site4768] | 9.41 |
| ACGTATCAAAAAATTTGTACATATATATATATATAT [XGTACX_site1024] | 9.9 |
| GAACAGAAAAAGAATAGTACATATATATATATATAT [XGTACX_site3700] | 9.56 |
| ATTCAAAATAATAGAATTGTTAAAGTTGTAAATTGA [CACACA_negctrl_site727] | 9.34 |
| TATAATATGAACAGTACACACAAAATAAATTCGTAT [CACACA_site3586] | 9.98 |
| AAAAAAAAAGTATTATGTACATAAAAATAAAAAAAT [XGTACX_site4166] | 9.85 |
| GTTTATGTTAAACCATGTACTTAATATTTTATTCTT [XGTACX_site3761] | 9.76 |
| TATGATTCATAATAGTGTACGTAAAAATTGACTAGA [XGTACX_site5376] | 9.67 |
| TATTAAAATATGTCAGTTCTTAAAAAGTTGATGAGT [GTGCAC_negctrl_site77] | 9.45 |
| AAAAATATATAAAGAAAAAGAATATAATATAAAATA [GTGCAC_negctrl_site208] | 9.66 |
| ATTGTAGAATTTAATAGTACTCACGAATAAAATAAA [XGTACX_site6280] | 9.49 |
| ACCATGAAAATATTATGTACATATGTATTATATATA [XGTACX_site408] | 9.64 |
| GAGTGAGCTAATAAAAGTACGTAATAAACAAACGCA [XGTACX_site131] | 9.68 |
| ATAGCTGTATTTAATACACACAAAACTTTCATTCCA [CACACA_site5868] | 9.72 |
| TTTTTTTGTTTTGTTTTTTTTTTTTTTTTTTTTTTG [CACACA_negctrl_site570] | 9.2 |
| TTACCGTAAAAATTTTGTACATAAAATAATATATAA [XGTACX_site532] | 9.54 |

| Sequence | gcPBM binding intensity (ln) |
| --- | --- |
| CACATACATATATATACACACAAATATATATACACA [CACACA_site8164] | 10 |
| GATATAAAATATTGGTGTACTTTTTTTTTTTTTTTT [XGTACX_site7174] | 9.47 |
| GTATGTGTGTCAAGTCGTACTTACCTTTAAATTTTT [XGTACX_site2507] | 10.1 |
| TTTTTTTTTTTTTTTTTTTCTATTTTACTGTTTCGT [CACACA_negctrl_site850] | 8.78 |
| TGTGAAGTACCGAATGTGCACTGTGTGTGTTCTTTT [GTGCAC_site9613] | 10.4 |
| ATAATTAATAAATAATGTACATATATATTATATTTT [XGTACX_site8546] | 9.61 |
| TTTTTATATTTTTGCACACATTCTTTACTCTTCAAA [CACACA_site2210] | 10 |
| TATATATATGGACACACACACATATAAATAAATAAA [CACACA_site4406] | 10.7 |
| TTAAAAAAAAAACACACACACATACACATATATATA [CACACA_site3299] | 11.1 |
| ATGATTATTTTAAAAAGTACTAATTATTATTTTTTT [XGTACX_site7242] | 9.37 |
| GAATATGAATATTTGCGTACTTATATAACTGTTCTA [XGTACX_site883] | 9.72 |
| AAAAAAAATAATAATACACACAATATGATATGTACA [CACACA_site850] | 9.97 |
| ATACACATTCGAAATAACAAAAAAATACATACACAT [GTGCAC_negctrl_site628] | 9.87 |
| TACTATAAGATATATACACACAAGAAATACAAAACG [CACACA_site6764] | 10.4 |
| ATTATTTTAATTTTAATTTTTTTTTTTTTTTGTTTT [CACACA_negctrl_site1063] | 9.4 |
| TATTTTTCCATAAAAATTTATATAGAAACAAATAAT [GTGCAC_negctrl_site103] | 9.29 |
| CCCTTTTATTAAAATTCACACACATAAATTTTTATA [CACACA_site8611] | 9.96 |
| TTTTTATACAATTAGACACACACAAAAAGTATATAT [CACACA_site8272] | 9.93 |
| ATATATGTATATTTTTGTACGCATAAATATATTTTT [XGTACX_site827] | 9.62 |
| TGCTTAATTTACGTGGGTACATACACCTCATATATT [XGTACX_site3093] | 9.77 |
| TTAATACATATATATATATTATATATATATATATAT [TGCATGCA_negctrl_site177] | 9.62 |
| TATTTGTTGTGAGTCACACATATATATATATATATA [CACACA_site4240] | 9.84 |

| Sequence | gcPBM binding intensity (ln) |
| --- | --- |
| TTTTTTATAAAATTTTTTTTTTAAAATATTAAAACT [XGTACX_negctrl_site240] | 9.35 |
| AAGCTATATATAGGCAGTACTTTGTAAGTGTAGATA [XGTACX_site8365] | 9.82 |
| AAAAAAAAAAAAAAAACACACAGAACAATATATAAA [CACACA_site4698] | 10.3 |
| TATATGCATATACATACACACATAACACATACGTTT [CACACA_site3832] | 9.98 |
| TTTCTAATTCTTAGTGGTACACAGTTCTGCTGATAT [XGTACX_site2391] | 9.5 |
| ATATGTCACTTGTATACACACATATAGATTTCAATC [CACACA_site7519] | 9.94 |
| TTGTTTTTTTTTGGCTGTACGTTCATAAATTTTTTT [XGTACX_site4165] | 9.74 |
| TTTTCATAAAATCATTGTACATTTATCGTATATTAA [XGTACX_site3855] | 9.65 |
| AAAATATCTTATATATGTACATATTTATATTTATAT [XGTACX_site6027] | 9.78 |
| ATATTGTAAGTAAACACACACACATATATATGTATA [CACACA_site8124] | 10.6 |
| ACAATTTACACTTAAACACACAAAAAAAAATTATAT [CACACA_site2065] | 9.99 |
| GCATCGATCAAACATACACACATGGTTAATAAAAAT [CACACA_site8651] | 10 |
| AAGGTAGAAATATGTTGTACGGTTTGGAGGAAGCAA [XGTACX_site1105] | 9.73 |
| TGTTTTATTTTATTAGTGCATTTTTATTTATAATAG [GTGCAC_site9453] | 9.59 |
| ACATATATATTCATATGTACATATACATACATACAT [XGTACX_site4563] | 9.94 |
| GACAAAAAATTAAAATAAAATAATAATATAATAAAA [GTGCAC_negctrl_site234] | 9.62 |
| ATATAATAGTTATATTGTACATAAATTATACACCTT [XGTACX_site628] | 9.7 |
| TATAAACACCCATATAAACACACATATAAACCAACA [CACACA_site8790] | 10 |
| ATACGCACACATATATGTACATATTGTATATATATA [XGTACX_site3962] | 9.91 |
| GGAATGGTACATGATACACACACGCACATATATATA [CACACA_site5825] | 10.1 |
| TATATTAAACAATATACACACATTAATGTATACATA [CACACA_site2755] | 9.8 |
| AATATATGTATATATTTTTTTTTTTCCCTTACAAAT [GTGCAC_negctrl_site428] | 9.37 |
